Structures can show the parent of a compound that is named as a salt. Viability of KB3-1 and Nalm-6 cells after 48 h of drug alone (CellTiter-Glo), 11 doses over about 4.5 log units. % of DMSO wells, lower = more cell loss; AC50 from the fitted curve, lower = more potent. No active / inactive call. Nalm-6 was screened in two runs. AC50 is listed only for well-fitted inhibitory curves. KB3-1 is a HeLa-derived carcinoma line, Nalm-6 a B-cell precursor leukaemia line.
Legend:
KB3-1 = experiment: viability (% of DMSO control); higher = more viable cells
Procedure: (§1)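 Eleven-dose screen of the NCATS MIPE 3 library on cells without co-treatment; CellTiter-Glo after 48 h, as % of DMSO wells.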

Nalm-6 = experiment: as above
Procedure: as §1

Work on Cc1c(C)c2c(c(C)c1O)CCC(C)(COc1ccc(CC3SC(=O)NC3=O)cc1)O2 (stereo not given) [Troglitazone] yielded a viability (KB3-1; 0.00078 µM) of 101%, a viability (KB3-1; 0.00234 µM) of 104% and a viability (KB3-1; 0.00702 µM) of 104%. For the same molecule, the viability (KB3-1; 0.0211 µM) was 103%, the viability (KB3-1; 0.0632 µM) was 103% and the viability (KB3-1; 0.19 µM) was 102%. For the same molecule, the viability (KB3-1; 0.569 µM) was 101%, the viability (KB3-1; 1.71 µM) was 101% and the viability (KB3-1; 5.12 µM) was 103%. For the same molecule, the viability (KB3-1; 15.4 µM) was 93.1%, the viability (KB3-1; 46.1 µM) was 62.1% and the viability (Nalm-6; run: 1, 0.00078 µM) was 104%. For the same molecule, the viability (Nalm-6; run: 1, 0.00234 µM) was 110%, the viability (Nalm-6; run: 1, 0.00702 µM) was 100% and the viability (Nalm-6; run: 1, 0.0211 µM) was 107%. For the same molecule, the viability (Nalm-6; run: 1, 0.0632 µM) was 111%, the viability (Nalm-6; run: 1, 0.19 µM) was 120% and the viability (Nalm-6; run: 1, 0.569 µM) was 116%. It also gave a viability (Nalm-6; run: 1, 1.71 µM) of 105%, a viability (Nalm-6; run: 1, 5.12 µM) of 118% and a viability (Nalm-6; run: 1, 15.4 µM) of 109%. The viability (Nalm-6; run: 1, 46.1 µM) was 61.9%, the viability (Nalm-6; run: 2, 0.00078 µM) was 103% and the viability (Nalm-6; run: 2, 0.00234 µM) was 106%. For the same molecule, the viability (Nalm-6; run: 2, 0.00702 µM) was 104%, the viability (Nalm-6; run: 2, 0.0211 µM) was 104% and the viability (Nalm-6; run: 2, 0.0632 µM) was 101%. It also gave a viability (Nalm-6; run: 2, 0.19 µM) of 98.5%, a viability (Nalm-6; run: 2, 0.569 µM) of 103% and a viability (Nalm-6; run: 2, 1.71 µM) of 104%. It also gave a viability (Nalm-6; run: 2, 5.12 µM) of 105%, a viability (Nalm-6; run: 2, 15.4 µM) of 101% and a viability (Nalm-6; run: 2, 46.1 µM) of 63.8%.
For CC(C)C[C@H](NC(=O)[C@@H](O)[C@H](N)Cc1ccccc1)C(=O)O [Ubenimex], the viability (KB3-1; 0.00078 µM) was 101%, the viability (KB3-1; 0.00234 µM) was 103% and the viability (KB3-1; 0.00702 µM) was 104%. It also gave a viability (KB3-1; 0.0211 µM) of 108%, a viability (KB3-1; 0.0632 µM) of 102% and a viability (KB3-1; 0.19 µM) of 103%. It also gave a viability (KB3-1; 0.569 µM) of 102%, a viability (KB3-1; 1.71 µM) of 92.3% and a viability (KB3-1; 5.12 µM) of 84.8%. It also gave a viability (KB3-1; 15.4 µM) of 81.6%, a viability (KB3-1; 46.1 µM) of 77.8% and a viability (Nalm-6; run: 1, 0.00078 µM) of 17.4%. The viability (Nalm-6; run: 1, 0.00234 µM) was 36.5%, the viability (Nalm-6; run: 1, 0.00702 µM) was 67.1% and the viability (Nalm-6; run: 1, 0.0211 µM) was 66%. The viability (Nalm-6; run: 1, 0.0632 µM) was 76.4%, the viability (Nalm-6; run: 1, 0.19 µM) was 87.1% and the viability (Nalm-6; run: 1, 0.569 µM) was 92.7%. For the same molecule, the viability (Nalm-6; run: 1, 1.71 µM) was 106%, the viability (Nalm-6; run: 1, 5.12 µM) was 105% and the viability (Nalm-6; run: 1, 15.4 µM) was 110%. It also gave a viability (Nalm-6; run: 1, 46.1 µM) of 105%, a viability (Nalm-6; run: 2, 0.00078 µM) of 111% and a viability (Nalm-6; run: 2, 0.00234 µM) of 108%. For the same molecule, the viability (Nalm-6; run: 2, 0.00702 µM) was 109%, the viability (Nalm-6; run: 2, 0.0211 µM) was 112% and the viability (Nalm-6; run: 2, 0.0632 µM) was 116%. For the same molecule, the viability (Nalm-6; run: 2, 0.19 µM) was 108%, the viability (Nalm-6; run: 2, 0.569 µM) was 109% and the viability (Nalm-6; run: 2, 1.71 µM) was 107%. For the same molecule, the viability (Nalm-6; run: 2, 5.12 µM) was 109%, the viability (Nalm-6; run: 2, 15.4 µM) was 105% and the viability (Nalm-6; run: 2, 46.1 µM) was 108%.
For NC(=O)c1ccc(N(C(N)=O)c2c(F)cccc2F)nc1-c1ccc(F)cc1F [VX-702], the viability (KB3-1; 0.00078 µM) was 104%, the viability (KB3-1; 0.00234 µM) was 102% and the viability (KB3-1; 0.00702 µM) was 106%. The viability (KB3-1; 0.0211 µM) was 105%, the viability (KB3-1; 0.0632 µM) was 99.2% and the viability (KB3-1; 0.19 µM) was 95%. For the same molecule, the viability (KB3-1; 0.569 µM) was 99.2%, the viability (KB3-1; 1.71 µM) was 99.6% and the viability (KB3-1; 5.12 µM) was 95.3%. For the same molecule, the viability (KB3-1; 15.4 µM) was 92.9%, the viability (KB3-1; 46.1 µM) was 91.5% and the viability (Nalm-6; run: 1, 0.00078 µM) was 120%. The viability (Nalm-6; run: 1, 0.00234 µM) was 113%, the viability (Nalm-6; run: 1, 0.00702 µM) was 115% and the viability (Nalm-6; run: 1, 0.0211 µM) was 119%. For the same molecule, the viability (Nalm-6; run: 1, 0.0632 µM) was 116%, the viability (Nalm-6; run: 1, 0.19 µM) was 108% and the viability (Nalm-6; run: 1, 0.569 µM) was 115%. The viability (Nalm-6; run: 1, 1.71 µM) was 111%, the viability (Nalm-6; run: 1, 5.12 µM) was 81.3% and the viability (Nalm-6; run: 1, 15.4 µM) was 104%. For the same molecule, the viability (Nalm-6; run: 1, 46.1 µM) was 90.3%, the viability (Nalm-6; run: 2, 0.00078 µM) was 107% and the viability (Nalm-6; run: 2, 0.00234 µM) was 106%. It also gave a viability (Nalm-6; run: 2, 0.00702 µM) of 110%, a viability (Nalm-6; run: 2, 0.0211 µM) of 109% and a viability (Nalm-6; run: 2, 0.0632 µM) of 109%. For the same molecule, the viability (Nalm-6; run: 2, 0.19 µM) was 108%, the viability (Nalm-6; run: 2, 0.569 µM) was 105% and the viability (Nalm-6; run: 2, 1.71 µM) was 106%. It also gave a viability (Nalm-6; run: 2, 5.12 µM) of 100%, a viability (Nalm-6; run: 2, 15.4 µM) of 72% and a viability (Nalm-6; run: 2, 46.1 µM) of 108%.
O=C(O)CC/C=C\CC[C@@H]1[C@@H](N2CCCCC2)[C@@H](O)C[C@@H]1OCc1ccc(-c2ccccc2)cc1 [Vapiprost hydrochloride] was tested, and the viability (KB3-1; 0.00078 µM) was 107%, the viability (KB3-1; 0.00234 µM) was 104% and the viability (KB3-1; 0.00702 µM) was 103%. The viability (KB3-1; 0.0211 µM) was 106%, the viability (KB3-1; 0.0632 µM) was 112% and the viability (KB3-1; 0.19 µM) was 111%. It also gave a viability (KB3-1; 0.569 µM) of 113%, a viability (KB3-1; 1.71 µM) of 109% and a viability (KB3-1; 5.12 µM) of 105%. It also gave a viability (KB3-1; 15.4 µM) of 105%, a viability (KB3-1; 46.1 µM) of 103% and a viability (Nalm-6; run: 1, 0.00078 µM) of 118%. The viability (Nalm-6; run: 1, 0.00234 µM) was 127%, the viability (Nalm-6; run: 1, 0.00702 µM) was 108% and the viability (Nalm-6; run: 1, 0.0211 µM) was 114%. It also gave a viability (Nalm-6; run: 1, 0.0632 µM) of 116%, a viability (Nalm-6; run: 1, 0.19 µM) of 132% and a viability (Nalm-6; run: 1, 0.569 µM) of 110%. For the same molecule, the viability (Nalm-6; run: 1, 1.71 µM) was 126%, the viability (Nalm-6; run: 1, 5.12 µM) was 118% and the viability (Nalm-6; run: 1, 15.4 µM) was 113%. It also gave a viability (Nalm-6; run: 1, 46.1 µM) of 101%, a viability (Nalm-6; run: 2, 0.00078 µM) of 103% and a viability (Nalm-6; run: 2, 0.00234 µM) of 102%. For the same molecule, the viability (Nalm-6; run: 2, 0.00702 µM) was 105%, the viability (Nalm-6; run: 2, 0.0211 µM) was 105% and the viability (Nalm-6; run: 2, 0.0632 µM) was 106%. For the same molecule, the viability (Nalm-6; run: 2, 0.19 µM) was 107%, the viability (Nalm-6; run: 2, 0.569 µM) was 107% and the viability (Nalm-6; run: 2, 1.71 µM) was 102%. It also gave a viability (Nalm-6; run: 2, 5.12 µM) of 102%, a viability (Nalm-6; run: 2, 15.4 µM) of 104% and a viability (Nalm-6; run: 2, 46.1 µM) of 98.4%.
For Cl.Cl.Clc1ccc(Nc2nnc(Cc3ccncc3)c3ccccc23)cc1 [Vatalanib], the viability (KB3-1; 0.00078 µM) was 99.9%, the viability (KB3-1; 0.00234 µM) was 103% and the viability (KB3-1; 0.00702 µM) was 105%. For the same molecule, the viability (KB3-1; 0.0211 µM) was 112%, the viability (KB3-1; 0.0632 µM) was 106% and the viability (KB3-1; 0.19 µM) was 103%. It also gave a viability (KB3-1; 0.569 µM) of 106%, a viability (KB3-1; 1.71 µM) of 108% and a viability (KB3-1; 5.12 µM) of 107%. It also gave a viability (KB3-1; 15.4 µM) of 108%, a viability (KB3-1; 46.1 µM) of 76.1% and a viability (Nalm-6; run: 1, 0.00078 µM) of 97.9%. For the same molecule, the viability (Nalm-6; run: 1, 0.00234 µM) was 86%, the viability (Nalm-6; run: 1, 0.00702 µM) was 100% and the viability (Nalm-6; run: 1, 0.0211 µM) was 109%. It also gave a viability (Nalm-6; run: 1, 0.0632 µM) of 107%, a viability (Nalm-6; run: 1, 0.19 µM) of 103% and a viability (Nalm-6; run: 1, 0.569 µM) of 103%. The viability (Nalm-6; run: 1, 1.71 µM) was 102%, the viability (Nalm-6; run: 1, 5.12 µM) was 111% and the viability (Nalm-6; run: 1, 15.4 µM) was 104%. For the same molecule, the viability (Nalm-6; run: 1, 46.1 µM) was 49.8%, the viability (Nalm-6; run: 2, 0.00078 µM) was 94.8% and the viability (Nalm-6; run: 2, 0.00234 µM) was 101%. For the same molecule, the viability (Nalm-6; run: 2, 0.00702 µM) was 92.7%, the viability (Nalm-6; run: 2, 0.0211 µM) was 107% and the viability (Nalm-6; run: 2, 0.0632 µM) was 103%. For the same molecule, the viability (Nalm-6; run: 2, 0.19 µM) was 95.3%, the viability (Nalm-6; run: 2, 0.569 µM) was 104% and the viability (Nalm-6; run: 2, 1.71 µM) was 95.8%. It also gave a viability (Nalm-6; run: 2, 5.12 µM) of 103%, a viability (Nalm-6; run: 2, 15.4 µM) of 98% and a viability (Nalm-6; run: 2, 46.1 µM) of 37.5%.

Source: the supplement of paper PMC4996465
